A lower IC50 marks a more sensitive line; a fit beyond the top or the lowest dose is shown as a bound at that dose. AUC sums up the same curve from the lowest dose to the 256-fold higher top dose; the more sensitive the line, the further below 1. For part of these data: Where the top dose is marked as inferred, it was calculated from the reported fits. For part of these data: An entry number marks a drug with two screens in the source, which often give different values.
What was measured:
Assay in all cases: Viability of human cancer cell lines after 72 h of drug (GDSC screen)
[1] = compound: CN1CCN(c2ccc([N+](=O)[O-])c3no[n+]([O-])c23)CC1 [NSC-207895]; conditions: top dose 20 µM; top dose inferred
Description: (§1)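 Human cancer cell lines in 384-well plates, medium with 10% serum, drug for 72 h over a 256-fold dose range (nine 2-fold or five 4-fold steps up to the top dose). Adherent lines were fixed and stained with the nucleic acid dye Syto60, suspension lines read with resazurin; signal relative to control wells, capped at 0 and 100%. One two-parameter sigmoid per drug and line, fitted in a mixed model over all curves with the slope shared within a line.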

[2] = compound: Cc1ccc(C(=O)N(CCCN)[C@@H](c2nc3cc(Cl)ccc3c(=O)n2Cc2ccccc2)C(C)C)cc1 [SB-715992]; conditions: top dose 0.128 µM; top dose inferred
Description: as §1

[3] = compound: O=C(/C=C/c1cccc(S(=O)(=O)Nc2ccccc2)c1)NO [Belinostat]; conditions: top dose 20 µM; top dose inferred
Description: as §1

[4] = compound: C[C@]1(O)C[C@@H](c2nc(-c3ccc4ccc(-c5ccccc5)nc4c3)c3c(N)nccn32)C1 [OSI-906]; conditions: top dose 2.56 µM; top dose inferred
Description: as §1

[5] = compound: c1ccc2c(CCNc3ccc(Nc4ccncc4)cc3)c[nH]c2c1 [JNJ-26854165]; conditions: top dose 10 µM
Description: as §1

[6] = compound: CCOc1nc(NC(=O)Cc2cc(OC)ccc2OC)cc(N)c1C#N [JNK Inhibitor VIII]; conditions: top dose 10 µM; top dose inferred
Description: as §1

[7] = compound: CC(=O)O[C@@]12CO[C@@H]1C[C@H](O)[C@@]1(C)C(=O)[C@H](O)C3=C(C)[C@@H](OC(=O)[C@H](O)[C@@H](NC(=O)OC(C)(C)C)c4ccccc4)C[C@@](O)([C@@H](OC(=O)c4ccccc4)[C@H]21)C3(C)C [Docetaxel]; conditions: top dose 0.0125 µM
Description: as §1

[8] = compound: CC1(C)CNc2cc(NC(=O)c3cccnc3NCc3ccncc3)ccc21 [AMG-706]; conditions: top dose 2 µM; top dose inferred
Description: as §1

[9] = compound: COCC[n+]1c2c(n(Cc3cnccn3)c1C)C(=O)c1ccccc1C2=O [YM155]; conditions: top dose 5.12 µM
Description: as §1

[10] = compound: COC(=O)[C@H](CCSC)NC(=O)c1ccc(NC[C@@H](N)CS)cc1-c1ccccc1 [FTI-277]; conditions: top dose 1.024 µM; top dose inferred
Description: as §1

[11] = compound: Cc1sc2c(c1C)C(c1ccc(Cl)cc1)=N[C@@H](CC(=O)OC(C)(C)C)c1nnc(C)n1-2 [JQ1]
Description: as §1

[12] = top dose 1 µM, screen: GDSC drug entry 1218, top dose inferred
[13] = top dose 2.56 µM, screen: GDSC drug entry 163

Row | Cell Line | AUC [1] | IC50 [1] [µM] | AUC [2] | IC50 [2] [nM] | AUC [3] | IC50 [3] [nM] | AUC [4] | IC50 [4] [nM] | AUC [5] | IC50 [5] [µM] | AUC [6] | IC50 [6] [µM] | AUC [7] | IC50 [7] [nM] | AUC [8] | IC50 [8] [nM] | AUC [9] | IC50 [9] [nM] | AUC [10] | IC50 [10] [nM] | AUC [11, 12] | IC50 [11, 12] [nM] | AUC [11, 13] | IC50 [11, 13] [nM]
1 | 22RV1 (prostate, adherent) | 0.899 | > 20 | 0.795 | 76 | 0.267 | 226 | 0.831 | 2190 | 0.887 | > 10 | 0.977 | > 10 | 0.701 | 3.34 | 0.974 | > 2000 | 0.07 | < 20 | 0.981 | > 1020 |  |  |  | 
2 | 42-MG-BA (glioma, adherent) | 0.985 | > 20 | 0.985 | > 128 | 0.523 | 1450 | 0.983 | > 2560 | 0.802 | 5.32 | 0.966 | > 10 | 0.56 | 1.15 | 0.894 | > 2000 | 0.029 | < 20 | 0.985 | > 1020 | 0.976 | > 1000 | 0.837 | 1890
3 | 201T (lung adenocarcinoma, adherent) | 0.975 | > 20 | 0.863 | > 128 | 0.699 | 5310 | 0.623 | 381 | 0.952 | > 10 | 0.974 | > 10 | 0.67 | 2.63 | 0.967 | > 2000 | 0.451 | 228 | 0.953 | > 1020 |  |  | 0.743 | 972
4 | 451Lu (melanoma, adherent) | 0.836 | 12.5 | 0.984 | > 128 | 0.653 | 3250 | 0.989 | > 2560 | 0.842 | 6.62 | 0.983 | > 10 | 0.734 | 3.51 | 0.936 | > 2000 | 0.133 | 23.9 | 0.986 | > 1020 | 0.988 | > 1000 | 0.44 | 110
5 | 639-V (bladder, adherent) | 0.844 | 11.3 | 0.946 | > 128 | 0.647 | 2980 | 0.959 | > 2560 | 0.882 | 7.86 | 0.884 | 8 | 0.623 | 1.62 | 0.945 | > 2000 | 0.036 | < 20 | 0.985 | > 1020 | 0.911 | > 1000 | 0.602 | 292
6 | 647-V (bladder, adherent) | 0.729 | 5.61 | 0.96 | > 128 | 0.782 | 8370 | 0.965 | > 2560 | 0.864 | 8.82 | 0.985 | > 10 | 0.696 | 2.79 | 0.987 | > 2000 | 0.095 | < 20 | 0.941 | > 1020 | 0.984 | > 1000 | 0.614 | 330
7 | 5637 (bladder, adherent) | 0.873 | 16.1 | 0.804 | 57.1 | 0.21 | 196 | 0.917 | > 2560 | 0.793 | 4.1 | 0.977 | > 10 | 0.298 | 0.225 | 0.971 | > 2000 | 0.022 | < 20 | 0.976 | > 1020 | 0.972 | > 1000 | 0.732 | 677
8 | 8305C (thyroid, adherent) | 0.828 | 17.9 | 0.973 | > 128 | 0.982 | > 20000 | 0.887 | > 2560 | 0.918 | > 10 | 0.966 | > 10 | 0.763 | 5.85 | 0.975 | > 2000 | 0.975 | > 5120 | 0.947 | > 1020 | 0.972 | > 1000 | 0.546 | 222
9 | A375 (melanoma, adherent) | 0.88 | 14.5 | 0.717 | 28.7 | 0.338 | 486 | 0.677 | 451 | 0.881 | 7.29 | 0.949 | > 10 | 0.652 | 1.9 | 0.957 | > 2000 | 0.036 | < 20 | 0.988 | > 1020 | 0.991 | > 1000 | 0.909 | 2470
10 | AU565 (breast, adherent) | 0.899 | > 20 | 0.892 | > 128 | 0.381 | 566 | 0.964 | > 2560 | 0.816 | 6.34 | 0.935 | > 10 | 0.667 | 2.42 | 0.866 | > 2000 | 0.077 | < 20 | 0.941 | > 1020 |  |  | 0.853 | 2360
11 | AsPC-1 (pancreas, adherent) | 0.972 | > 20 | 0.939 | > 128 | 0.56 | 2040 | 0.95 | > 2560 | 0.905 | > 10 | 0.971 | > 10 | 0.818 | > 12.5 | 0.94 | > 2000 | 0.27 | 43.7 | 0.939 | > 1020 |  |  |  | 
12 | BFTC-905 (bladder, adherent) | 0.799 | 8.08 | 0.728 | 31.7 | 0.476 | 1090 | 0.642 | 371 | 0.827 | 4.98 | 0.952 | > 10 | 0.39 | 0.408 | 0.949 | > 2000 | 0.019 | < 20 | 0.99 | > 1020 | 0.989 | > 1000 | 0.507 | 166
13 | BxPC-3 (pancreas, adherent) | 0.962 | > 20 |  |  | 0.48 | 1090 | 0.957 | > 2560 | 0.882 | > 10 | 0.984 | > 10 | 0.723 | 3.66 | 0.952 | > 2000 | 0.032 | < 20 | 0.947 | > 1020 |  |  |  | 
14 | Calu-3 (lung adenocarcinoma, adherent) | 0.982 | > 20 | 0.983 | > 128 | 0.7 | 5320 | 0.939 | > 2560 | 0.869 | > 10 | 0.973 | > 10 | 0.947 | > 12.5 | 0.983 | > 2000 | 0.325 | 91.3 | 0.935 | > 1020 |  |  |  | 
15 | DMS-273 (small cell lung carcinoma, adherent) | 0.783 | 8.93 |  |  | 0.233 | 199 | 0.978 | > 2560 | 0.887 | > 10 | 0.967 | > 10 | 0.529 | 0.942 | 0.976 | > 2000 | 0.03 | < 20 | 0.973 | > 1020 | 0.983 | > 1000 | 0.599 | 305
16 | FU97 (stomach, adherent) | 0.953 | > 20 |  |  | 0.521 | 1430 | 0.958 | > 2560 | 0.851 | 7.98 | 0.957 | > 10 | 0.828 | 7.99 | 0.952 | > 2000 | 0.426 | 200 | 0.986 | > 1020 | 0.976 | > 1000 | 0.613 | 331
17 | HuH-7 (liver, adherent) | 0.9 | > 20 | 0.987 | > 128 | 0.448 | 900 | 0.811 | 1360 | 0.871 | 9.35 | 0.979 | > 10 | 0.874 |  | 0.954 | > 2000 | 0.405 | 176 | 0.986 | > 1020 |  |  |  | 
18 | KP-2 (pancreas, adherent) | 0.945 | > 20 | 0.776 | 55.1 | 0.561 | 1860 | 0.843 | 2040 | 0.981 | > 10 | 0.939 | > 10 | 0.691 | 2.82 | 0.982 | > 2000 | 0.534 | 399 | 0.986 | > 1020 |  |  |  | 
19 | LCLC-103H (large cell lung carcinoma, adherent) | 0.985 | > 20 | 0.847 | 81 | 0.457 | 966 | 0.861 | 1840 | 0.854 | 6.76 | 0.979 | > 10 | 0.742 | 3.55 | 0.986 | > 2000 | 0.023 | < 20 | 0.954 | > 1020 |  |  |  | 
20 | MDA-MB-468 (breast, adherent) | 0.859 | 15.6 | 0.501 | 8.06 | 0.768 | 7190 | 0.987 | > 2560 | 0.913 | > 10 | 0.961 | > 10 | 0.798 | 5.71 | 0.97 | > 2000 | 0.032 | < 20 | 0.982 | > 1020 |  |  |  | 
21 | NCI-H661 (large cell lung carcinoma, adherent) | 0.834 | 17 | 0.685 | 29.5 | 0.371 | 511 | 0.946 | > 2560 | 0.782 | 5.14 | 0.901 | > 10 | 0.802 | 7.68 | 0.877 | > 2000 | 0.033 | < 20 | 0.9 | > 1020 |  |  |  | 
22 | SBC-5 (small cell lung carcinoma, adherent) | 0.849 | 11 | 0.962 | > 128 | 0.348 | 517 | 0.97 | > 2560 | 0.903 | 8.8 | 0.993 | > 10 | 0.7 | 2.51 | 0.991 | > 2000 | 0.016 | < 20 | 0.993 | > 1020 |  |  |  | 

From the supplement of paper PMC4967469
